{
  "source": "the supplement of paper PMC8728848",
  "binders": {"B1": {"name": "MAA (Maackia amurensis), P0DKL3 (protein)", "chain": "MATSNSKPTQVLLATFLTFFFLLLNNVNSSDELSFTINNFVPNEADLLFQGEASVSSTGVLQLTRVENGQPQKYSVGRALYAAPVRIWDNTTGSVASFSTSFTFVVKAPNPDITSDGLAFYLAPPDSQIPSGSVSKYLGLFNNSNSDSSNQIVAVELDTYFAHSYDPWDPNYRHIGIDVNGIESIKTVQWDWINGGVAFATITYLAPNKTLIASLVYPSNQTTFSVAASVDLKEILPEWVRVGFSAATGYPTEVETHDVLSWSFTSTLEANCDAATENNVHIARYTA"}},
  "experiment_in_all_cases": "glycan array binding signal (z-score within array); higher = stronger binding",
  "details_in_all_cases": "glycan notation: IUPAC condensed, linker removed",
  "key": {"[1]": {"target": "Gal(b1-3)GlcNAc(a1-3)Gal(b1-4)GlcNAc", "method_in_brief": "(§1)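 Arrays were curated from the Consortium for Functional Glycomics database, 3228 in total, and kept only where the protein sequence was available. Binding is expressed as a within-array Z-score. This score was averaged across arrays of the same protein sequence at different concentrations or buffers and across linkers, and negative values can be read as non-binding.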"}, "[2]": {"target": "Gal(b1-3)GlcNAc(a1-6)Gal(b1-4)GlcNAc", "method_in_brief": "as §1"}, "[3]": {"target": "Gal(b1-3)GlcNAc(b1-2)Man", "method_in_brief": "as §1"}, "[4]": {"target": "Gal(b1-3)GlcNAc(b1-2)Man(a1-3)[Gal(b1-3)GlcNAc(b1-2)Man(a1-6)]Man(b1-4)GlcNAc(b1-4)GlcNAc", "method_in_brief": "as §1"}, "[5]": {"target": "Gal(b1-3)GlcNAc(b1-2)Man(a1-3)[Gal(b1-3)GlcNAc(b1-2)Man(a1-6)]Man(b1-4)GlcNAc(b1-4)[Fuc(a1-6)]GlcNAc", "method_in_brief": "as §1"}, "[6]": {"target": "Gal(b1-3)GlcNAc(b1-2)Man(a1-3)[GlcNAc(b1-4)][Gal(b1-3)GlcNAc(b1-2)Man(a1-6)]Man(b1-4)GlcNAc(b1-4)GlcNAc", "method_in_brief": "as §1"}, "[7]": {"target": "Gal(b1-3)GlcNAc(b1-2)[Gal(b1-3)GlcNAc(b1-6)]Man(a1-6)[Gal(b1-3)GlcNAc(b1-2)Man(a1-3)]Man(b1-4)GlcNAc(b1-4)GlcNAc", "method_in_brief": "as §1"}, "[8]": {"target": "Gal(b1-3)GlcNAc(b1-3)Gal(b1-3)GlcNAc", "method_in_brief": "as §1"}, "[9]": {"target": "Gal(b1-3)GlcNAc(b1-3)Gal(b1-4)Glc", "method_in_brief": "as §1"}, "[10]": {"target": "Gal(b1-3)GlcNAc(b1-3)Gal(b1-4)GlcNAc", "method_in_brief": "as §1"}, "[11]": {"target": "Gal(b1-3)GlcNAc(b1-3)Gal(b1-4)GlcNAc(b1-2)Man(a1-3)[Gal(b1-3)GlcNAc(b1-3)Gal(b1-4)GlcNAc(b1-2)Man(a1-6)]Man(b1-4)GlcNAc(b1-4)GlcNAc", "method_in_brief": "as §1"}, "[12]": {"target": "Gal(b1-3)GlcNAc(b1-3)Gal(b1-4)GlcNAc(b1-2)[Gal(b1-3)GlcNAc(b1-3)Gal(b1-4)GlcNAc(b1-6)]Man(a1-6)[Gal(b1-3)GlcNAc(b1-3)Gal(b1-4)GlcNAc(b1-2)Man(a1-3)]Man(b1-4)GlcNAc(b1-4)[Fuc(a1-6)]GlcNAc", "method_in_brief": "as §1"}, "[13]": {"target": "Gal(b1-3)GlcNAc(b1-3)Gal(b1-4)GlcNAc(b1-3)Gal(b1-4)GlcNAc(b1-2)[Gal(b1-3)GlcNAc(b1-3)Gal(b1-4)GlcNAc(b1-3)Gal(b1-4)GlcNAc(b1-6)]Man(a1-6)[Gal(b1-3)GlcNAc(b1-3)Gal(b1-4)GlcNAc(b1-3)Gal(b1-4)GlcNAc(b1-2)Man(a1-3)]Man(b1-4)GlcNAc(b1-4)[Fuc(a1-6)]GlcNAc", "method_in_brief": "as §1"}, "[14]": {"target": "Gal(b1-3)GlcNAc(b1-3)Gal(b1-4)GlcNAc(b1-6)[Gal(b1-3)GlcNAc(b1-3)]Gal(b1-4)Glc", "method_in_brief": "as §1"}, "[15]": {"target": "Gal(b1-3)GlcNAc(b1-3)Gal(b1-4)[Fuc(a1-3)]GlcNAc", "method_in_brief": "as §1"}, "[16]": {"target": "Gal(b1-3)GlcNAc(b1-3)Gal(b1-4)[Fuc(a1-3)]GlcNAc(b1-6)[Gal(b1-3)GlcNAc(b1-3)]Gal(b1-4)Glc", "method_in_brief": "as §1"}, "[17]": {"target": "Gal(b1-3)GlcNAc(b1-3)GalNAc", "method_in_brief": "as §1"}, "[18]": {"target": "Gal(b1-3)GlcNAc(b1-6)Gal(b1-4)GlcNAc", "method_in_brief": "as §1"}, "[19]": {"target": "Gal(b1-3)GlcNAc(b1-6)GalNAc", "method_in_brief": "as §1"}, "[20]": {"target": "Gal(b1-3)GlcNAc(b1-6)[Gal(b1-3)]GalNAc", "method_in_brief": "as §1"}, "[21]": {"target": "Gal(b1-3)GlcNAc6S", "method_in_brief": "as §1"}, "[22]": {"target": "Gal(b1-3)[Fuc(a1-4)]GlcNAc", "method_in_brief": "as §1"}, "[23]": {"target": "Gal(b1-3)[Fuc(a1-4)]GlcNAc(b1-2)Man", "method_in_brief": "as §1"}, "[24]": {"target": "Gal(b1-3)[Fuc(a1-4)]GlcNAc(b1-2)Man(a1-3)[Gal(b1-3)[Fuc(a1-4)]GlcNAc(b1-2)Man(a1-6)]Man(b1-4)GlcNAc(b1-4)[Fuc(a1-6)]GlcNAc", "method_in_brief": "as §1"}, "[25]": {"target": "Gal(b1-3)[Fuc(a1-4)]GlcNAc(b1-3)Gal(b1-3)[Fuc(a1-4)]GlcNAc", "method_in_brief": "as §1"}, "[26]": {"target": "Gal(b1-3)[Fuc(a1-4)]GlcNAc(b1-3)Gal(b1-4)GlcNAc", "method_in_brief": "as §1"}, "[27]": {"target": "Gal(b1-3)[Fuc(a1-4)]GlcNAc(b1-3)Gal(b1-4)[Fuc(a1-3)]GlcNAc", "method_in_brief": "as §1"}, "[28]": {"target": "Gal(b1-3)[Fuc(a1-4)]GlcNAc(b1-6)GalNAc", "method_in_brief": "as §1"}, "[29]": {"target": "Gal(b1-3)[GlcNAc(b1-6)]GalNAc", "method_in_brief": "as §1"}, "[30]": {"target": "Gal(b1-3)[Neu5Ac(a2-6)]GalNAc", "method_in_brief": "as §1"}, "[31]": {"target": "Gal(b1-3)[Neu5Ac(a2-6)]GlcNAc(b1-4)Gal(b1-4)Glc", "method_in_brief": "as §1"}, "[32]": {"target": "Gal(b1-3)[Neu5Ac(a2-6)]GlcNAc(b1-6)Gal(b1-4)Glc", "method_in_brief": "as §1"}, "[33]": {"target": "Gal(b1-3)[Neu5Ac(b2-6)]GalNAc", "method_in_brief": "as §1"}, "[34]": {"target": "Gal(b1-4)Gal", "method_in_brief": "as §1"}, "[35]": {"target": "Gal(b1-4)GalNAc(a1-3)[Fuc(a1-2)]Gal(b1-4)GlcNAc", "method_in_brief": "as §1"}, "[36]": {"target": "Gal(b1-4)GalNAc(b1-3)[Fuc(a1-2)]Gal(b1-4)GlcNAc", "method_in_brief": "as §1"}, "[37]": {"target": "Gal(b1-4)Glc", "method_in_brief": "as §1"}},
  "note": "The list shows a part of the results.",
  "data": [
    {"binder": "B1", "values": [
      {"measurement": "glycan array binding signal (z-score)", "setting": "[1]", "value": -0.283},
      {"measurement": "glycan array binding signal (z-score)", "setting": "[2]", "value": -0.244},
      {"measurement": "glycan array binding signal (z-score)", "setting": "[3]", "value": -0.278},
      {"measurement": "glycan array binding signal (z-score)", "setting": "[4]", "value": -0.021},
      {"measurement": "glycan array binding signal (z-score)", "setting": "[5]", "value": -0.073},
      {"measurement": "glycan array binding signal (z-score)", "setting": "[6]", "value": -0.27},
      {"measurement": "glycan array binding signal (z-score)", "setting": "[7]", "value": -0.239},
      {"measurement": "glycan array binding signal (z-score)", "setting": "[8]", "value": -0.161},
      {"measurement": "glycan array binding signal (z-score)", "setting": "[9]", "value": -0.181},
      {"measurement": "glycan array binding signal (z-score)", "setting": "[10]", "value": -0.22},
      {"measurement": "glycan array binding signal (z-score)", "setting": "[11]", "value": -0.169},
      {"measurement": "glycan array binding signal (z-score)", "setting": "[12]", "value": -0.213},
      {"measurement": "glycan array binding signal (z-score)", "setting": "[13]", "value": 0.178},
      {"measurement": "glycan array binding signal (z-score)", "setting": "[14]", "value": -0.24},
      {"measurement": "glycan array binding signal (z-score)", "setting": "[15]", "value": -0.245},
      {"measurement": "glycan array binding signal (z-score)", "setting": "[16]", "value": -0.145},
      {"measurement": "glycan array binding signal (z-score)", "setting": "[17]", "value": -0.209},
      {"measurement": "glycan array binding signal (z-score)", "setting": "[18]", "value": -0.239},
      {"measurement": "glycan array binding signal (z-score)", "setting": "[19]", "value": -0.258},
      {"measurement": "glycan array binding signal (z-score)", "setting": "[20]", "value": -0.214},
      {"measurement": "glycan array binding signal (z-score)", "setting": "[21]", "value": -0.338},
      {"measurement": "glycan array binding signal (z-score)", "setting": "[22]", "value": -0.217},
      {"measurement": "glycan array binding signal (z-score)", "setting": "[23]", "value": -0.144},
      {"measurement": "glycan array binding signal (z-score)", "setting": "[24]", "value": 0.008},
      {"measurement": "glycan array binding signal (z-score)", "setting": "[25]", "value": -0.278},
      {"measurement": "glycan array binding signal (z-score)", "setting": "[26]", "value": -0.239},
      {"measurement": "glycan array binding signal (z-score)", "setting": "[27]", "value": -0.212},
      {"measurement": "glycan array binding signal (z-score)", "setting": "[28]", "value": 0.11},
      {"measurement": "glycan array binding signal (z-score)", "setting": "[29]", "value": -0.157},
      {"measurement": "glycan array binding signal (z-score)", "setting": "[30]", "value": -0.241},
      {"measurement": "glycan array binding signal (z-score)", "setting": "[31]", "value": -0.262},
      {"measurement": "glycan array binding signal (z-score)", "setting": "[32]", "value": -0.252},
      {"measurement": "glycan array binding signal (z-score)", "setting": "[33]", "value": -0.219},
      {"measurement": "glycan array binding signal (z-score)", "setting": "[34]", "value": -0.137},
      {"measurement": "glycan array binding signal (z-score)", "setting": "[35]", "value": -0.17},
      {"measurement": "glycan array binding signal (z-score)", "setting": "[36]", "value": -0.249},
      {"measurement": "glycan array binding signal (z-score)", "setting": "[37]", "value": -0.176}
    ]}
  ]
}
